From patent US20220340635A1, “FUSION PROTEIN FOR TREATMENT OF METABOLIC DISEASE” (ZHEJIANG DOER BIOLOGICS CORPORATION, priority 2019, published 2022)

B1: A352L1F6L5M2: SEQ ID NO.110: GCG analogue A352 + L1 + FC F6 + L5 + FGF21 analogue M2 (protein)
chain: HSQGTFTSDYSKYLDSQAAQDFVQWLLAGGPSSGAPPPSGGGGSGGGGSGGGGSA[letters of human IgG4 Fc with S228P N297A (EU numbers) omitted]GGGGAGGGGAGGGGAHPIPDSSPLLQFGGQVRQRYLYTDDAQQTEAHLEIREDGTVGGAADQSPESLLQLKALKPGVIQILGVKTSRFLCQRPDGALYGSLHFDPEACSFRERLLEDGYNVYQSEAHGLPLHCPGNKSPHRDPAPRGPCRFLPLPGLPPALPEPPGILAPQPPDVGSSDPLSMVGGSQGRSPSYES
modifications: Amino acid sequence of A352L1F6L5M2
B2: A232L1F6: SEQ ID NO.65: GCG analogue A232 + linker L1 + IgG FC F6 (protein)
chain: HSQGTFTSDYSKYLDEQAAQDFVQWLLAGGPSSGAPPPSGGGGSGGGGSGGGGSA[letters of human IgG4 Fc with S228P N297A (EU numbers) omitted]
modifications: Amino acid sequence of active protein A232L1F6

Legend:
DIO mice = assay: Pharmacodynamic study of continuous administration in diet-induced obese (DIO) mice; type: in vivo
Method: The purpose of this Embodiment is to study the effect of different dual functional fusion proteins on the body weight of DIO mice. 7-week-old C57BL/6J male mice were fed with high-fat diet (60% kcal from fat) for another 16 weeks (a total of 23 weeks), and the test was conducted when their body weight reached approximately 55 g. Feeding conditions: 12 h light/12 h darkness, freely fed in single cage; mice were grouped (8 mice per group) according to body weight and body weight growth curve the day before administration; at the next day, mice were administered subcutaneously. The mice are administered at a dose of 20 nmol per kg of body weight once every 4 days, with PBS sham injections on other days, for 28 continuous days. The negative control group was injected with saline (PBS) at 5 ul per kg of body weight. The positive control group was injected with liraglutide (40 nmol per kg of body weight) once a day. The body weights of the mice were measured everyday and the food intakes were recorded. Mice were sacrificed on the 5th day after the last administration. Blood was collected from the eye socket. Plasma samples were stored at −80 C. The average body weight changes of each animal group before administration and sacrifice were calculated.

[1] = Serum stability assay (GCGR agonism activity after incubation in serum at 37° C.); conditions: serum (FBS), in words
[2] = biological target: Recombinant DPP-IV enzyme (Homo sapiens, UniProt P27487); assay: DPP-IV enzyme resistance (GCGR bioactivity after DPP-IV treatment); type: in vitro ADME; conditions: 5 μM protein, 10 nM recombinant DPP-IV, 37° C., 24 hours; GCGR bioactivity after/before treatment
Method: The purified fusion protein was dissolved in 10 mM of HEPES buffer (containing 0.05 mg/ml BSA) to a final concentration of 5 μM. Recombinant DPP-IV enzyme (final concentration of 10 nM) was added and incubated at 37° C. for 24 hours before detection of GCGR bioactivity. Activity retention rate=(activity after DPP-IV enzyme treatment/activity before DPP-IV enzyme treatment)×100%.

Recombinant DPP-IV enzyme, sequence (P27487 whole entry, species assumed, the tested form may be a part): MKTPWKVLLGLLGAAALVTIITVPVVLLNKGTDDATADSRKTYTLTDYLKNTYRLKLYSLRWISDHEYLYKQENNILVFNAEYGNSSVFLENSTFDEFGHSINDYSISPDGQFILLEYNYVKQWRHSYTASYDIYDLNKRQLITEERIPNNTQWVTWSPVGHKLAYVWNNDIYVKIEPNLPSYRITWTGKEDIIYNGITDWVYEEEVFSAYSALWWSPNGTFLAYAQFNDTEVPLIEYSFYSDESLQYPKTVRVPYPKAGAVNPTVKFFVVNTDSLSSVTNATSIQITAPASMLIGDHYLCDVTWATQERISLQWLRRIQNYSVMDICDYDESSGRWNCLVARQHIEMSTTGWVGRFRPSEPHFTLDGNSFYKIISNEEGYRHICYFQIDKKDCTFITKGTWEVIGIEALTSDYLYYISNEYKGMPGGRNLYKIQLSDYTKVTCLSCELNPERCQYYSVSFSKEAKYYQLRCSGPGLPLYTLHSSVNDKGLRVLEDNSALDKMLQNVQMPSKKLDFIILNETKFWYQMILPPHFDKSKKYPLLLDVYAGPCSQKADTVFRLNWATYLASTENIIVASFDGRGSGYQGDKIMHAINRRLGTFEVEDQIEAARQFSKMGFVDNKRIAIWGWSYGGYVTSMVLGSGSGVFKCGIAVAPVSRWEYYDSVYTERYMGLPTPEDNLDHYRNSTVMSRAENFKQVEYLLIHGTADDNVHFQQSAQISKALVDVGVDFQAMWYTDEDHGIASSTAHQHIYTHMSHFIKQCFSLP

Row | Molecule | Side effects / safety (DIO mice; DIO mice (Embodiment 7)) | Weight loss effect in DIO mice (DIO mice; DIO mice, 20 nmol per kg subcutaneous once every 4 days, 28 days) | Stability in serum (relative GCGR activity over time, FIGS. 1A-B) [1] | Activity preservation rate (%) [2] [%]
1 | B1 | potentially lower side effects and improved safety | more significant weight loss effect |  | 
2 | B2 |  |  | significantly more stable in serum compared with other fusion proteins | 98.2
